From PMC7819943, “Rice protein-binding microarrays: a tool to detect cis-acting elements near promoter regions in rice”
The other results are listed elsewhere or left out.

molecular target: T1, OsWOX13 (Oryza sativa, UniProt Q5QMM3 1-267); assay: protein-binding microarray (RPBM); PBS, 2% BSA, 51.3 ng/ul salmon testes DNA, 50 uM zinc acetate, 200 nM TF, 25 C, 1 h; high values mean tight binding; details: protein: recombinant; tags: N-terminal polyhistidine and DsRed monomer fusion (pET32a); label: CyDye5-dUTP incorporated in the synthesized complementary strand; 3' TTTTT single-stranded linker to array surface; dsDNA, one strand shown
T1 sequence: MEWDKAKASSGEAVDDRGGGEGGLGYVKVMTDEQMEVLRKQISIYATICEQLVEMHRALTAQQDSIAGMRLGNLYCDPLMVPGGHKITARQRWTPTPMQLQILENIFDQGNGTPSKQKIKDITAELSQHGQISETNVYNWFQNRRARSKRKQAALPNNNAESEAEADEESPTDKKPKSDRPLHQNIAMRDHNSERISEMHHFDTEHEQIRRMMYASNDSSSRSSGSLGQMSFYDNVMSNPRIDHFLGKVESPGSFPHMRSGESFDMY
Summary of the method: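 The binding signal for each feature is its fluorescence intensity in arbitrary units. An Axon 4000B scanner was used to read a custom Agilent array that had been made double-stranded with Cy5-dUTP primer extension, blocked with 2% BSA, incubated at 25 °C for 1 h with 200 nM protein in PBS, 2% BSA, salmon testes DNA and 50 µM zinc acetate, and washed. The protein was an N-terminal polyhistidine–DsRed transcription factor fusion from E. coli BL21-CodonPlus, purified on Ni–NTA.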

Sequence	binding signal
CTAATAACAAAACAAATTACAGATTTCGCCTGTAATATGCCGGAGTCACCTAGTGCAG	9460 fluorescence intensity (a.u.)
AAACAAACATGACATAATTACTTTATCATAAATTTGAAAACGGAGTCACCTAGTGCAG	9640 fluorescence intensity (a.u.)
ATCAACTGGTAAATTTACAAGGCAAATTTTGAATCCGTATCGGAGTCACCTAGTGCAG	8980 fluorescence intensity (a.u.)
ATGATGTGTTAATTCATTTGTTGCTATTGATAAGTTACTTCGGAGTCACCTAGTGCAG	4620 fluorescence intensity (a.u.)
GATGGATTGGTAGCGAGCGTGTGAGGAAGTCAGGATTGAGCGGAGTCACCTAGTGCAG	3230 fluorescence intensity (a.u.)
CAAGTAAATTATGGTGTATGTATTTCACATGAACAGTCAACGGAGTCACCTAGTGCAG	7020 fluorescence intensity (a.u.)
CATAATTAAGGTCTCTAGCTGGCTAACTGTTTGCATACTCCGGAGTCACCTAGTGCAG	8050 fluorescence intensity (a.u.)
AACCCAATCACACCGGATTAGTTGAGCTCGTTTTGCGTTTCGGAGTCACCTAGTGCAG	17600 fluorescence intensity (a.u.)
GGGATCGGGGTAATTGATGATTTCTTATGCCAGTTAATGCCGGAGTCACCTAGTGCAG	28100 fluorescence intensity (a.u.)
TGCATTAATTGCTTCCATATCTGGGGTTCAAACTGATATCCGGAGTCACCTAGTGCAG	10200 fluorescence intensity (a.u.)
AGTGTAATTGGATTGTAAATCGGATAAGTAATTTGAGAGACGGAGTCACCTAGTGCAG	29400 fluorescence intensity (a.u.)
ATACCCTTAACCTTGTTAATTTAATGTTTGATCAGGCAACCGGAGTCACCTAGTGCAG	6220 fluorescence intensity (a.u.)
GCTCACCTTGTGATTAGCATAGCCACTGCAGATATCGAATCGGAGTCACCTAGTGCAG	3880 fluorescence intensity (a.u.)
TTTAAAATGAGAATAATTACATTGGAATTTGATAAAGGAGCGGAGTCACCTAGTGCAG	16900 fluorescence intensity (a.u.)
TATGTTATAATTGCATTCAGAGCACGAACAGCGCTAGACTCGGAGTCACCTAGTGCAG	4630 fluorescence intensity (a.u.)
ATTATATGATTAATGAATATGCATATCGATAATATGGACACGGAGTCACCTAGTGCAG	14800 fluorescence intensity (a.u.)
GATTATGATTAGTATTTTCATTGTTATTAGATGATAAAATCGGAGTCACCTAGTGCAG	3620 fluorescence intensity (a.u.)
ACCAAACAATCATATGAGACACACAGGTCCATCACATGAGCGGAGTCACCTAGTGCAG	4870 fluorescence intensity (a.u.)
AAATGAAATTTGAAGCAATTGATATTGGTGTTGCGGTCATCGGAGTCACCTAGTGCAG	5540 fluorescence intensity (a.u.)
GTGTAAAATATATATATAATTTTGTAGGGTGCTAGCGCATCGGAGTCACCTAGTGCAG	3610 fluorescence intensity (a.u.)
CCACTAAATTGAAATGACCGGGCCTGGTAAACCCAACGAGCGGAGTCACCTAGTGCAG	26800 fluorescence intensity (a.u.)
TATAATTTAGACAAACTTAAATATTACTAAATTAGGCAAACGGAGTCACCTAGTGCAG	13600 fluorescence intensity (a.u.)
AATAATCAATAACTATCACGCGCAATATGAATATTACACACGGAGTCACCTAGTGCAG	6040 fluorescence intensity (a.u.)
